US20130189747A1, “Compositions Comprising A Polypeptide Having Cellulolytic Enhancing Activity And A Sulfur-Containing Compound And Uses Thereof” (priority 2010, published 2013)

Key:
Type in all cases: biochemical
[1] = test system: Trichoderma reesei cellulase composition; test: Hydrolysis of milled washed pretreated corn stover (PCS) by the Trichoderma reesei cellulase composition with/without GH61 polypeptide and sulfur-containing compound
Protocol: (§1) The effect of various sulfur-containing compounds on the cellulolytic enhancing activity of GH61 polypeptides was evaluated according to the procedures described below.

[2] = test system: Trichoderma reesei cellulase composition; test: Hydrolysis of milled unwashed pretreated corn stover (PCS) by the Trichoderma reesei cellulase composition with/without GH61 polypeptide and sulfur-containing compound; conditions: T. aurantiacus GH61A polypeptide, L-cysteine 5 mM present
Protocol: as §1

[3] = test system: Trichoderma reesei cellulase composition; test: Hydrolysis of AVICEL® (microcrystalline cellulose) by the Trichoderma reesei cellulase composition with/without GH61 polypeptide and sulfur-containing compound; conditions: for GH61 effect (Equation 4): 1 and 3 days
Protocol: as §1

## N[C@@H](CS)C(=O)O [L-cysteine]
[1]; PCS, L-cysteine 1 mM, no GH61 polypeptide, 1 and 3 days, FIG. 4A
  sulfur-containing compound effect(no GH61): < 1
[1]; washed milled PCS, day 1, L-cysteine 0, 0.01, 0.1, 1, 10 mM, T. aurantiacus GH61A polypeptide 5.6, 14 or 28 mg per liter, FIG. 4B
  Change of the GH61 effect as L-cysteine concentration was increased: larger
[2]; 7 days
  GH61 effect (Equation 4): 1.36±0.05
[2]; FIG. 5
  GH61 effect (Equation 4): greater than 1
[3]; AVICEL®, L-cysteine 10 mM, T. aurantiacus GH61A polypeptide 14 mg per liter (25% w/w of cellulase), FIG. 3A
  GH61 effect (Equation 4): > 1
[3]; AVICEL®, day 1, L-cysteine 0, 0.01, 0.1, 1, 10 mM, T. aurantiacus GH61A polypeptide 5.6, 14 or 28 mg per liter, FIG. 3B
  Change of the GH61 effect as L-cysteine concentration was increased: larger

B1: T. reesei GH61B polypeptide: GH61B polypeptide having cellulolytic enhancing activity (SEQ ID NO: 16), recombinantly prepared in Aspergillus oryzae JaL250 (protein, listed as Trichoderma reesei)
chain: MKSCAILAALGCLAGSVLGHGQVQNFTINGQYNQGFILDYYYQKQNTGHFPNVAGWYAEDLDLGFISPDQYTTPDIVCHKNAAPGAISATAAAGSNIVFQWGPGVWPHPYGPIVTYVVECSGSCTTVNKNNLRWVKIQEAGINYNTQVWAQQDLINQGNKWTVKIPSSLRPGNYVFRHELLAAHGASSANGMQNYPQCVNIAVTGSGTKALPAGTPATQLYKPTDPGILFNPYTTITSYTIPGPALWQG
[3]; AVICEL®, L-cysteine 5 mM present, GH61 polypeptide at 2 mg per g cellulose, FIG. 6I
  GH61 effect (Equation 4): greater than 1
[3]; in the absence of a sulfur-containing compound
  Effect of the GH61 polypeptide on hydrolysis of AVICEL® (microcrystalline cellulose) by the T. reesei cellulase composition: did not enhance
